# Results as given in PubChem BioAssay AID504332 (National Center for Advancing Translational Sciences (NCATS), 2011).
# Screen size: about 350,000 compounds; about 31,000 (8.9%) were called active. Inconclusive means that the source gave no clear call. Such entries were picked first, then a sample of the others. Calls follow the shape of the dose curve; as a rule, active = well fitted inhibition curve with a large enough effect; inconclusive = small, poorly fitted or top-dose-only effect; inactive = no such curve, though single readings can be large or run the other way. Where the call is inconclusive, the potency comes from a doubtful curve fit.
# Target: Histone-lysine N-methyltransferase EHMT2 (Homo sapiens) (UniProt Q96KQ7)
# Chain of UniProt Q96KQ7 (Q96KQ7 whole entry, looked up): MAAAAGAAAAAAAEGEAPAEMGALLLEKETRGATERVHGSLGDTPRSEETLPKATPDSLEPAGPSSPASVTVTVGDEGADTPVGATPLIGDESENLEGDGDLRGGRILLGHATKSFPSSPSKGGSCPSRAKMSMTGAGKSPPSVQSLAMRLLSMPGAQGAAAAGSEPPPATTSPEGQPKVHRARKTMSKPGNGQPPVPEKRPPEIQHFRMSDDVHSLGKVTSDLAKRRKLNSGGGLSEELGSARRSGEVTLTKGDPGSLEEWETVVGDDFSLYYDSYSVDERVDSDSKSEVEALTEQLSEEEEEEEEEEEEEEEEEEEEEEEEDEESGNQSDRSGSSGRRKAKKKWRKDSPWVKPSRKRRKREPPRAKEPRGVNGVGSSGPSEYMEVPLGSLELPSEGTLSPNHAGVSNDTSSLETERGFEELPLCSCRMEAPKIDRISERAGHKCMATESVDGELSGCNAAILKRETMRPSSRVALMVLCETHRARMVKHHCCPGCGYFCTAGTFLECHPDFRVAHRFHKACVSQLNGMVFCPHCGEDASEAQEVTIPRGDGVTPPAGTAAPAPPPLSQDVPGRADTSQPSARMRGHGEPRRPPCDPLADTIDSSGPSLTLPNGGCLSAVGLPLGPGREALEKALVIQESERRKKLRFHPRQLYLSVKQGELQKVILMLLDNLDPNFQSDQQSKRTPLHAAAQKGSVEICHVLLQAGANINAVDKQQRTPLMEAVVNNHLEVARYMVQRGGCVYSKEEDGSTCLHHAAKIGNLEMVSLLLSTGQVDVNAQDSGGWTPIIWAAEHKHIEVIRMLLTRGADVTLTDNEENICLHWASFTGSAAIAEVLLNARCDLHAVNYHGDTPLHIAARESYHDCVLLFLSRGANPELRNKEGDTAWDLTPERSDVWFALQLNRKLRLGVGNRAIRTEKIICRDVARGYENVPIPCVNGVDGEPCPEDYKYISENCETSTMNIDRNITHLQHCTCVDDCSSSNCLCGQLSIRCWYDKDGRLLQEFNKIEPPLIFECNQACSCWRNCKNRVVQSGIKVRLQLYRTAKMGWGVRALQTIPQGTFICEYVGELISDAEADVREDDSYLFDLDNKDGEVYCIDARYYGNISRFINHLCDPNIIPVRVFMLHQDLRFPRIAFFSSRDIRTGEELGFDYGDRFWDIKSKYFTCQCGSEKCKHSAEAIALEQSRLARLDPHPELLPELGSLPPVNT
# Assay: qHTS Assay for Inhibitors of Histone Lysine Methyltransferase G9a; also: nearly all actives have a fitted effect of over 75% in size
# Settings: G9a H3K9 monomethylation, AlphaScreen, 2 h; activity, negative = inhibition: at 59 µM (top of the series) unless noted
# How it was run: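 Quantitative HTS format: methyltransferase activity on a biotin-tagged H3K9 peptide is measured by AlphaScreen, using a rabbit anti-monomethyl-H3K9 antibody with streptavidin donor and anti-IgG acceptor beads. Final levels are 20 nM enzyme, 500 nM peptide, 20 uM SAM; 2 h RT.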
# % is scaled to controls: 0 for no effect and ±100 for the full control effect; potency is read from the fitted curve at half-maximal effect; tags tell the direction and shape of the fitted curve.
Structure (SMILES),Potency,"activity, negative = inhibition"
Cc1c(C(N)=O)nnn1-c1ccc(Br)cc1,inactive,
COc1ccc(C(=S)N2CCC(C(N)=O)CC2)cc1Br,"inconclusive: 35.5 µM [inhibitor, full curve, poor fit]",
CCc1cccc(NC(=O)CN2C(=O)CCc3cc(S(=O)(=O)N4CCOCC4)ccc32)c1,inactive,
O=C(NC(=S)N1CCN(c2nc(-c3ccccc3)cs2)CC1)c1cncc(Br)c1,"inconclusive: 50.1 µM [inhibitor, partial curve, poor fit]",
COCC(C)n1c(SCC(=O)NC(=O)NC2CCCC2)nc2ccccc2c1=O (centres undefined),,inactive: 16.8% [at 12.7 µM]
Cc1c(Cl)cccc1-n1c(CCC(=O)O)ccc1-c1cccs1,"inconclusive: 25.1 µM [inhibitor, partial curve, poor fit]",
CC(=O)Nc1ccc(NC(=O)C(C)n2nc(C)c([N+](=O)[O-])c2C)cc1 (centres undefined),inactive,
O=C(Nc1nc(-c2ccc(S(=O)(=O)N3CCOCC3)cc2)cs1)c1ccccc1,"inconclusive: 89.1 µM [inhibitor, single point]",
COc1ccc(CNc2nc(-c3ccccc3)nn2C(=O)c2ccc([N+](=O)[O-])cc2)cc1,"inconclusive: 25.1 µM [inhibitor, single point]",
Cc1cc(=O)oc2c(N)c(O)ccc12,"inconclusive: 28.2 µM [inhibitor, partial curve, poor fit]",
COc1cc(CNCc2c(C(=O)O)c(C)n(Cc3cccc(Cl)c3)c2C)cc(OC)c1OC,inactive,
CC(C)(C)C(=O)Nc1ccnn1C1CCN(C(=O)c2cccc(Cl)c2)CC1,"inconclusive: 20 µM [inhibitor, partial curve, poor fit]",
COc1ccccc1C1Nc2cccc3cccc(c23)N1,"inconclusive: 3.16 µM [inhibitor, single point]",
COc1ccc(N2CCN(C(=O)c3cc4c(=O)n(Cc5ccccc5)ccc4nc3C)CC2)cc1,"inconclusive: 50.1 µM [inhibitor, partial curve]",
CC1=C(C(=O)OC2CCCCC2)C(c2ccco2)n2ncnc2N1 (centres undefined),"inconclusive: 100 µM [inhibitor, single point]",
O=C(NC1CCCCC1)C(c1ccncc1)N(Cc1ccc2c(c1)OCO2)C(=O)C(F)(F)F (centres undefined),"inconclusive: 25.1 µM [inhibitor, single point]",
CNC(=O)c1sc(NCc2ccccc2OC)nc1C,"inconclusive: 89.1 µM [inhibitor, single point]",
N#Cc1ccc(Oc2cc(C(F)(F)F)nc(-c3ccccn3)n2)cc1,"inconclusive: 89.1 µM [inhibitor, partial curve, poor fit]",
Cc1ccc(/C=C2/C(=N)N3N=C(CC(=O)N4CCCC4)SC3=NC2=O)cc1,"inconclusive: 70.8 µM [inhibitor, partial curve, poor fit]",
Nc1nc(-c2ccco2)nn1C(=O)c1ccc([N+](=O)[O-])cc1,"inconclusive: 39.8 µM [inhibitor, partial curve]",
CCN(CC)c1cc(C)nc2nc(-c3ccc(C)cc3)nn12,inactive,
CCc1ccc(NC(=O)C(=O)N/N=C(\C)CC(=O)Nc2ccc(OC)cc2)cc1,"inconclusive: 44.7 µM [inhibitor, partial curve, poor fit]",
CCCN1CCn2c3c(c4cc(Br)ccc42)CCCC31 (centres undefined),"inconclusive: 79.4 µM [inhibitor, single point]",

Structure (SMILES),Potency,"activity, negative = inhibition"
Cc1cc(C(=O)CSc2n[nH]c(N)n2)c(C)n1-c1ccc2c(c1)OCO2,"inconclusive: 28.2 µM [inhibitor, single point]",
Cc1c(Cl)c(-c2n[nH]c(=S)n2Cc2ccco2)nn1C,active: 7.94 µM,
COc1ccc(CCNc2cc(C)nc3c(-c4ccccc4)c(C)nn23)cc1OC,inactive,
CC1=CC(=C(C#N)c2nc3ccccc3s2)C=C(C)N1CC1CCCO1 (centres undefined),inactive,
NC(=O)C1CCN(C2=C(NS(=O)(=O)c3ccc(Cl)cc3)C(=O)c3ccccc3C2=O)CC1,active: 25.1 µM,
O=S(=O)(c1cnc[nH]1)N1CCN(c2ccc(Cl)cc2)CC1,"inconclusive: 79.4 µM [inhibitor, single point]",
S=c1[nH]nc(COc2ccc(Cl)cc2)o1,active: 3.98 µM,
O=C(O)c1cccc(NC(=S)NC(=O)c2cccc(OCc3ccccc3)c2)c1,"inconclusive: 56.2 µM [inhibitor, partial curve, poor fit]",
O=S1(=O)c2ccccc2N(Cc2ccc(Cl)cc2F)c2ccccc21,inactive,
COC(=O)CC1SC(=O)NC1=Nc1ccc(OC)cc1 (centres undefined),"inconclusive: 50.1 µM [inhibitor, partial curve, poor fit]",
CCC(CC)C(=O)Nc1c(C(=O)N2CCN(c3ccccc3F)CC2)oc2ccccc12,"inconclusive: 39.8 µM [inhibitor, partial curve, poor fit]",
CC(C)=C1C2CCC1C(C(=O)Nc1cc(C)cc(C)c1)C2C(=O)O (centres undefined),active: 39.8 µM,
Cc1ccc(-c2nc3ccc([N+](=O)[O-])cc3[nH]2)cc1,"inconclusive: 44.7 µM [inhibitor, partial curve, poor fit]",
COC(=O)CC1Oc2ccc(C)cc2NC1=O (centres undefined),inactive,
COc1ccc(N2CCN(CCCNC(=O)Nc3ccccc3Cl)CC2)cc1,"inconclusive: 3.16 µM [inhibitor, full curve]",
COc1ccc(CCNC(=O)CN(c2ccc(C)cc2)S(=O)(=O)c2ccc(OC)cc2)cc1,inactive,
COc1cc(OC)cc(C(=O)OC(C)C(=O)NC2CCCc3ccccc32)c1 (centres undefined),"inconclusive: 3.55 µM [inhibitor, single point]",
COc1cc2c(cc1OC)C1=NC(=O)CN1C(SCc1ccc(C)cc1)=N2,,inconclusive: -97.5% [inhibitor]
C=C(C)CSc1nnc([C@@H]2CCCN2)o1,"inconclusive: 3.98 µM [inhibitor, full curve, poor fit]",
CCOc1ccc(-c2nc3c(c(SCC(=O)N4CCCCC4)n2)Cc2cc(C)ccc2O3)cc1,inactive,
Nc1ccc2nc(CCCCCCc3nc4ccc(N)cc4[nH]3)[nH]c2c1,active: 44.7 µM,
O=C(O)c1cccc(NC(CNS(=O)(=O)c2ccc(Cl)cc2)c2ccccc2)c1 (centres undefined),"inconclusive: 56.2 µM [inhibitor, partial curve]",
O=C1OC(c2ccc(Cl)cc2)=N/C1=C\C=C\c1ccco1,active: 14.1 µM,

Structure (SMILES),Potency,"activity, negative = inhibition"
COc1ccc2[nH]c(C)c(C(=O)CN3CCOCC3)c2c1,"inconclusive: 3.55 µM [inhibitor, partial curve, poor fit]",
CCOC(=O)CSc1nc2sc3c(c2c(=O)n1-c1ccc(C)cc1)CCN(C)C3,"inconclusive: 70.8 µM [inhibitor, single point]",
Cc1oncc1C(=O)NC(C)C,active: 44.7 µM,
CCn1c(CC(=O)Nc2cccc(OC)c2)nnc1SCC(=O)N1CCN(c2ccccc2)CC1,active: 12.6 µM,
CCCCc1nc2ccccc2c(NC(=O)CNC(C)(C)C)c1CCC,active: 8.91 µM,
Cc1c(C(=O)O)[nH]c2c1C(=O)CC(c1ccc(C(C)(C)C)cc1)C2 (centres undefined),"inconclusive: 79.4 µM [inhibitor, single point]",
CCc1c(C(=O)N2CCCN(C)CC2)csc1C,inactive,
CCOC(=O)C1=C(c2ccccc2)N=C2SCC(=O)N2C1c1ccc2c(c1)OCO2 (centres undefined),"inconclusive: 10 µM [inhibitor, partial curve, poor fit]",
COc1ccc(Br)c2c1-c1nc(NC(=O)c3cccc(C)c3)sc1C2,"inconclusive: 5.62 µM [inhibitor, full curve]",
c1ccc(-c2oc3ncnc(NCCCn4ccnc4)c3c2-c2ccccc2)cc1,,inconclusive: -67.8% [inhibitor]
C/C(CC(=O)NC(C)(C)C)=N\NC(N)=S,active: 3.98 µM,
COc1ccc(C2CC(c3ccc(C)o3)=NN2C(C)=O)cc1 (centres undefined),"inconclusive: 89.1 µM [inhibitor, single point]",
Cc1ccc(NC(=O)[C@H](C)NC(=O)C2CCN(C(=O)[C@@H](N)CC(C)C)CC2)cc1,"inconclusive: 89.1 µM [inhibitor, single point]",
Cn1c(Cc2ccc3c(c2)OCO3)nnc1SCC(=O)N1CCc2ccccc2C1,active: 44.7 µM,
O=C(CN1C(=O)COc2ccc(Cl)cc21)Nc1nccs1,,inactive: 27.1% [at 12.7 µM]
Cc1ccc(-n2nc(-c3ccc(N)cc3)cc2N)cc1,"inconclusive: 70.8 µM [inhibitor, partial curve]",
Cc1cccc(C)c1NC(=O)c1nc(S(=O)(=O)Cc2ccccc2)ncc1Cl,"inconclusive: 79.4 µM [inhibitor, single point]",
CCCCc1n[nH]c(=S)n1Cc1ccccc1,"inconclusive: 7.08 µM [inhibitor, full curve, poor fit]",
COc1cc(NC(=S)NC(=O)c2cccs2)ccc1NC(=O)C(C)C,"inconclusive: 31.6 µM [inhibitor, single point]",
CCOC(=O)c1c(C)[nH]c(C2=NNC(=Nc3ccc(OCC)cc3)SC2)c1C,"inconclusive: 39.8 µM [inhibitor, single point]",
O=C(NCc1ccco1)Nc1ccc2nsnc2c1,"inconclusive: 31.6 µM [inhibitor, single point]",
COc1ccccc1N1CCN(C2CCC(C)CC2)CC1 (centres undefined),"inconclusive: 89.1 µM [inhibitor, single point]",
CCC(=O)Nc1sc2c(c1C(=O)Nc1ccc(OC)cc1)CCC(C(C)(C)C)C2 (centres undefined),inactive,
